Results published in PMC10726135.
The list shows a part of the results. At the low end of the ranking the order means little. Measured with an extract: partners may take part in the binding.

target: T1, HNF4alpha2 (COS-7 nuclear extract) (UniProt P41235); test: protein-binding microarray; details: COS-7 nuclear extract on double-stranded Agilent 4x180k PBM; binding buffer, salt, pH and temperature not given; high values mean tight binding; double strand, one strand shown; sequences stand for … in …GCCTAGGGAGATTAGAGTATCGGTCGA
T1 sequence: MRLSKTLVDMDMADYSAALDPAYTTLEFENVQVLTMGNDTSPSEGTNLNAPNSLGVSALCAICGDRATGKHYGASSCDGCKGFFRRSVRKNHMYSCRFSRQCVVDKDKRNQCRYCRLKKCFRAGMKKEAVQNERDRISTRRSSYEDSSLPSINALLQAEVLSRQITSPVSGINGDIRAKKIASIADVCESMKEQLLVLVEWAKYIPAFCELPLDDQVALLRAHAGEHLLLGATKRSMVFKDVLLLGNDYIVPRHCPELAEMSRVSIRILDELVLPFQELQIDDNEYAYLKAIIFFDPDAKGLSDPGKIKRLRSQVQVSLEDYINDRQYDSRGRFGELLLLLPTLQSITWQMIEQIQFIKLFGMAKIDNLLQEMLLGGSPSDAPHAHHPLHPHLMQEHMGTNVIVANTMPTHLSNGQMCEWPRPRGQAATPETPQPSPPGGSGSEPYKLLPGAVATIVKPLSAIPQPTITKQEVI

Sequence | binding signal (log2 normalized intensity)
GGAAAACTACCCCTGCCTAAACAAGGCAGA | -0.903
ATTCCTTTTTCACTGCTCACAGGTTGTACT | 2.03
ATTAAACACAGTTGCCTATGCCCTTTGAAA | 2.36
GAAAGAGGTCAATGTACTTACAGCTGGAAG | 0.646
ACATTCCTTGTGTTTTGGGGACAGAAGGCA | 1.05
TAACGGTGAGGGAGGAGACTTTGACCTCTG | 6.61
CTGGATGACCTTTGTCCTGGCACAACTGGA | 5.84
ATTAGCTGAACATGGTGACACACACCTCCA | -1.19
TAAGGTTGTACTTTGGAGTTTACTTTAGAT | 2.91
TAGCATGCTCTCTTGTCAAGACCGATTGTG | 0.269
CAAATAACATTCCTAACATTCTTCCTCACA | -1.11
TTCCCTATCTAGCCACTTTCTTTGTCTGTG | 1.55
TGTGTGTGTGTGTGTATGCCATGCTAATTG | 2
TGCACTGTTTGCATAAAGTTAAACTTTAAA | 1.17
GCCCGAAAGACGCGGAGCGGGGGACCGAGA | -1.04
ATACAGACACACCTAGGGAGTTAATCACAG | -0.998
AGGTGACAGCCTTTTCTTATCAGGCTCATT | 0.0547
TGGATAAAGTCCATATTCTTTGTTTGGATG | 2.04
GCCAAAGGTAATAGGAAAAGGGAGTTTTCT | -1.07
AGCCTCTCTGCAAACATTTATTTTGTGTGC | 1.34
CATACAATGAATATTCAGACGCATGACCTC | 3.17
CAGTTTTCCTAAGGGGCTTTTATTGGCTCC | -0.56
TCAACATTGATGGGGCAGGGAAATATGTTC | 1.43
AAAATTAAGGTTCAAAGGGAAAAAATAATC | -0.757

Sequence | binding signal (log2 normalized intensity)
AGGAACTTGTCTAAAAACATTGTGGAGCTC | -0.826
AAAAGCAAACCGAGATCAAGGGACAGAGAT | -1.09
GTACTTTCTTTTGGCTCTCTCTCTTGGTTC | 1.58
ACCTGTATTAGGAAATTGTCAGTGCCCTAT | 2.25
AATGGGAGGAACTCCAGAACCAAAGTCCTA | -1.19
AGGCCGCGCCCGCCCGCGCCGGCCTCGGTC | -1.05
CTGGAAGCTCTTCTGTGCCTCCCAAATGCA | 1.45
AAGATAAGGACTGTTGGACCTCGAACTCCA | 4.06
TAAGATACGAAGGGTTTAAAGGGCAGAAGA | 1.91
GGCCTAGACACAGACTCAAGTGAGGAAGGA | -1.05
AGACATAACTCAAACATCTGACAGAGATAA | -1.11
ATGTTTCCTCTCCCAGCCCCTAGCCCTAAG | 3.54
CGCTGCTGCAGAGCAAAGCTGATAAAGAGG | -1.07
CCTCAAGAGACAACCAAGGTTGCAGAGTGT | -0.98
TCACACAAATGGATCTTTCTTCAAAAAGAG | 0.257
TTAATCACAGGATTTAAAGAATTCCAGACA | -1.09
AGTCTTGGCCCCACCGGTCACGACCCCGCT | 3.62
CAAGATTAGTGGGAAAGCTATTGCTCTGCA | -1.14
AAACCAAATCACAATTTTCAAGAACAAACA | -0.824
CAAAGGGTCAAGTTCAGATCCTGGCCATGC | 0.748
GCCTGTCACCCAACCTCACCTAACCACATT | 1.67
TAAGGAAGATAATGGGTCCGAAGGTCAGCT | 6.35
ACTTTGACCTTGGCACTGAAGAATGTCTAA | 1.8
CCTGGGAGTAACCTGCTTGTTTTCCCAACA | -0.54

Sequence | binding signal (log2 normalized intensity)
GTTAAACAGCAACTCAGGCAACAATGCCTT | -1.14
AATTTTTTTTTCTTATCTCACTGGATGTGT | 2.22
CTGGGGCAAAGGTTTCCTAAACAGTTACCG | 0.188
TGACCTTGGGCCAGTCGCTTAACCTCTTGA | 1.36
GCCGACTTACAGGACAAAAGTAAATATGGT | 0.187
ATTTTGTCACCTACATGTGAGAGAGGCTTA | -0.433
CCCAGTATGGTCTCAGTAATGACATGCAGT | 0.951
ATGGCTTATGCATGTTTATGTGAATTCCTG | 1.35
AATTACCCAACAGACTTTCCCCCTATTTCC | 3.25
CTCTAATCTGGGACAAGGGGGAGGAGAGTA | -0.975
GCAGTGGTTTGCAGTTGGAAAGCTGAGTTT | 1.06
GCTTTTCTTTCTCAAGCCAGACTGGTTTTT | 1.2
TCCTCTTCCCTACCCCCTGGGAGTAACCTG | 2.81
GCACTTTGCACCCTATGTGTTTCTTCTGCT | 4.08
TGAGCCATCCTGAACAAATGTACTGGATAT | -0.976
GTGTGGGGCAAATCTGAGGTCAAAGCTGTC | 1.41
AGCCACTTTCTTTGTCTGTGTAGACTCATC | 1.07
ACAGAGCCTGGTGTTTACTGGAGCCGAGTC | -0.283
GGGAGCCCTGGGGTAATAAATAAAGCCCTG | -1.19
GCACAGATCATATGGCCCACAAAGCCTAAA | -1.17
GACTTTTCCAAGCTCTAGAACGCTGACTCC | -1.09
GGGTTGGAGTCCAGAGTTCAGGTAGAGGGA | 1.85
ACACAGTACTTTGTACATGGGAATAGACAT | 0.863
ACTTCTCCTCTTATCTTCAGGTTTGCTAAT | 1.75

Sequence | binding signal (log2 normalized intensity)
CGAGCGTCCAAGCTCTTTCCATTTTTGCTC | -0.991
CAAAATAGACAAACAGCAATAGCAAGACTG | -1.09
ATGGAGGTAGGAGTATTTGGGTATGTGCCT | 1.52
TTTCAAAGCTCCAGTTCCAGGGATGTCTTT | 0.742
GGGTCAGTTTATCTAAGATTCCCCCTACCC | 3.85
TGGACTCTGGGATCTCAGGGTGGACTTTAA | 5.81
GTAAAATGAGCAAACAGAACTGTTAACTTT | -1.03
TTTTGATGGTGGAGGGTCTTGCTTTGATGT | 1.46
GGTACCATCTGCCACTCATAGAACTGTCGC | -0.684
AAAATGGGTACAGACAATAGGAAGAGTGAG | -0.66
AACCCAGTGCAATGCCTAAACCAGGATCCA | -1.16
TTAGTTTCCTTATCTGTAAAATGGACATAG | 0.981
CTCTTGAATTGGAAGGCAAAGTTCAACCCT | 3.2
AAGGTTTCCATCAAGCCTTTGACTCGAATG | -0.997
AAAAGATAAGGCGTAGTTCAGAGAAAACGA | -1.15
AGTTTGCCACGGTCAGCAATGTGGACTTTG | 6.18
ATCACACAGACAGACATTCAGAAACTGTCA | -1.1
ACGCACAGAGGCCCCTGATGTGATGTAATC | 0.474
CTTATTTGCATGAAGCACAAAGGTTACTTG | 2.82
CTGTACACTTACAAGTGTACAAAGGTCACT | 7.61
GACAAATCTGTGTTGGAGTTCTAAGAGCCT | -1.08
